Reference: PMC4336329 (PLoS ONE, 2015)
Among all 310,000 compounds or so, about 14,000 (4.5%) showed an effect of 50% or more. The effect is printed as a negative number. The list shows a part of the results.

Target: human ether-à-go-go-related gene (hERG) potassium channel (human, UniProt Q12809)
Test: primary screen, population patch clamp on CHO cells stably expressing hERG
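Also: peak tail current of the secondary pulse compared with the same well before compound.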

Chain of human ether-à-go-go-related gene (hERG) potassium channel (Q12809 whole entry, looked up): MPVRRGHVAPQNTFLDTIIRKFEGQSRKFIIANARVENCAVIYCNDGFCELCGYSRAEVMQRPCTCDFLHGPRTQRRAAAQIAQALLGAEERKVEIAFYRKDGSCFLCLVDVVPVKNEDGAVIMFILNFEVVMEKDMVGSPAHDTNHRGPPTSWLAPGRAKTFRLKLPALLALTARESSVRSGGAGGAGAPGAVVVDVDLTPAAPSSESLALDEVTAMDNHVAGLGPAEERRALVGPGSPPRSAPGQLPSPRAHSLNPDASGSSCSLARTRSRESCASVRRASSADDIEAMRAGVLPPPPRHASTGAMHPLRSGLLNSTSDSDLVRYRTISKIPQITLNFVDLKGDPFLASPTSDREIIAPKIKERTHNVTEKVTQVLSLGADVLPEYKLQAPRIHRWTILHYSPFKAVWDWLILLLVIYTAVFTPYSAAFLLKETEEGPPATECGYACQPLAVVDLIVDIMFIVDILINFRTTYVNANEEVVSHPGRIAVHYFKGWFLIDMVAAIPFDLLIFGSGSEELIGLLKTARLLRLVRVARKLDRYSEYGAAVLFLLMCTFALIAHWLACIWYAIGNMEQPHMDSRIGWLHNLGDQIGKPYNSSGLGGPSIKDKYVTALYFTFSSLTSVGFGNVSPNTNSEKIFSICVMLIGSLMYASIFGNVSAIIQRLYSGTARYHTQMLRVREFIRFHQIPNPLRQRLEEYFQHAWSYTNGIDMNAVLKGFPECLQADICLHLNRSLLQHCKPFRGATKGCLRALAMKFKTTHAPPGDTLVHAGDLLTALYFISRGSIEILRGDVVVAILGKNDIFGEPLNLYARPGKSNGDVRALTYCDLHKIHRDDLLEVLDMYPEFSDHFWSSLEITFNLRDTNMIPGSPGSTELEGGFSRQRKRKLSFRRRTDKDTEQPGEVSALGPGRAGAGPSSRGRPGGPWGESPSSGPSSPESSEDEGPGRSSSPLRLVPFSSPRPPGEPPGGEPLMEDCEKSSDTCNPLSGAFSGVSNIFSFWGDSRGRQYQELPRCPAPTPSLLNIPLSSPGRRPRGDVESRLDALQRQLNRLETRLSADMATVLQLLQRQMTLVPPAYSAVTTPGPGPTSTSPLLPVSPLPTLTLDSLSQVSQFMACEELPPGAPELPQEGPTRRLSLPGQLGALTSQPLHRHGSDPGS

SMILES	hERG current change (%, negative = inhibition) at 10uM [%]
CCc1ccccc1NC(=O)Nc1cccn(Cc2ccccc2F)c1=O	-19.5
O=C(O)c1[nH]c2ccccc2c1C(c1ccccc1)c1c(C(=O)O)[nH]c2ccccc12	25.4
Cc1cccc(CCNCc2cc3ccc(C)cc3[nH]c2=O)c1	-77.3
N#C/C(Cn1c[n+](NC(=O)Nc2ccccc2)cn1)=N/O.[Cl-]	16.2
O=C(Cn1ncc2c([nH]c3ccccc32)c1=O)NCC1CCN(Cc2ccc(F)cc2)CC1	-66
CC(=O)Nc1cccc(C(=O)NC(C)c2ccc(-n3ccnc3)cc2)c1 (centres unmarked)	-0.474
COc1ccc2[nH]c(=O)c(CN(C(=O)c3ccccn3)c3ccccc3)cc2c1	21
CC1(C)Cc2c(c(N3CCOCC3)nc3snc(N)c23)CO1	2.29
COc1ccc(/C=N\NC(=O)c2cccc(Br)c2)c(OC)c1	-10.8
Cc1ccc(C(=O)N/C(=C/c2ccccc2F)C(=O)NCCCn2ccnc2)cc1	-40.5
C=CCOC(=O)C1=C(C)NC(SCC(=O)Nc2nccs2)=C(C#N)C1c1ccc(Cl)cc1 (centres unmarked)	17.2
CCOC(=O)c1c(C)nc2sc3c(=O)n(-c4ccc(C(C)=O)cc4)nnc3c2c1-c1ccc(OC)cc1	17.4
O=C(CSc1n[nH]c(-c2cccs2)n1)N1CCCc2ccccc21	-16.6
CCn1c(C)c(C(C)=O)c(N2CCCC2)nc1=S	-6.59
Cc1occc1-c1nnc(SCC(=O)N2CCCCC2C)o1 (centres unmarked)	-12.1
CC1(C)CC(=O)C2=C(C1)Nc1cc3c(cc1C2c1ccc2c(c1)OCO2)OCO3 (centres unmarked)	-13.2
O=C(O)Cc1ccc(C(=O)c2ccccc2F)s1	10.3
NC1=NC(=O)/C(=C\c2cccnc2)S1	-2.29
COc1ccc(CC(=O)NNC(=O)c2cccnc2)cc1OC	14.5
CC1(C)C(=O)Nc2ccccc2N1C(=O)COC(=O)CSc1ccc(F)cc1	-2.24
COc1cc(/C=N/NC(=O)C2(O)c3ccccc3-c3ccccc32)ccc1O	-4.46
CC(=O)N1c2ccccc2N(Cc2ccc(C)cc2C)C(=O)C1(C)C	-12.4

SMILES	hERG current change (%, negative = inhibition) at 10uM [%]
CSc1nc2nc(-c3cccs3)cc(C(F)(F)F)c2c(=O)[nH]1	12.9
Cc1nc(SCC(=O)NCCc2ccccc2)c2oc3ccccc3c2n1	0.202
COc1ccc(C2C(C(=O)Nc3cc(C)on3)c3ccccc3C(=O)N2C)cc1 (centres unmarked)	5.67
O=C(Nc1ccccc1C(=O)N1CCOCC1)C1COc2ccccc2O1 (centres unmarked)	-3.33
COc1ccc(S(=O)(=O)CCC(=O)O)cc1	15
O[C@H]1c2ccccc2[C@H](Cc2cncs2)[C@@H]1Br	0.746
Cn1cccc1/C=C1\SC(=S)N(Nc2ccccc2)C1=O	9.36
COc1cc(N2Cc3ccccc3C2)ccc1C=O	-3.61
COc1cccc(NC(=O)CNc2cc(S(=O)(=O)N3CCOCC3)ccc2N2CCCC2)c1	-5.36
COc1ccccc1CNC(=O)CC12CC3CC(CC(Br)(C3)C1)C2	14
CCCCNCCOCCOc1ccc(C)cc1[N+](=O)[O-].O=C(O)C(=O)O	-44.7
COc1cc(NC(=O)C2CCCC2)c(OC)cc1Cl	-9.08
Cc1ccc(N=Cc2c(O)n(-c3nccs3)c(=O)c3ccccc23)c(C)c1	-5.35
Cc1ccc(SCCNC(=O)/C=C/c2ccccc2Cl)cc1	7.83
O=C(Nc1ccc(Nc2ccccc2)cc1)C(Cl)(Cl)Cl	-4.13
O=C1CN(C(=O)N[C@@H](Cc2ccccc2)C(=O)N[C@@H](Cc2ccccc2)C(=O)O)c2ccccc2N1	3.79
CCC(=O)N1CCc2cc(S(=O)(=O)CCC(=O)NCc3cccc(OC)c3)ccc21	13.8
Cc1ccn2c(NC(=O)c3ccccc3)c(-c3ccccc3)nc2c1	-14.8
O=C(CCc1nnc(COc2ccccc2)o1)NC1(c2ccccc2)CC1	-5.68
CCN1C(=O)/C(=C/C=C2\C=CN(CC)c3ccccc32)SC1=S	-4.57
O=C(Cn1nnc(-c2ccccc2Cl)n1)NCc1ccc2c(c1)OCO2	5.89
COc1ccccc1C(=O)Nc1nc2nc(-c3ccccc3)cc(=O)n2[nH]1	13.3
